Measured values reported in the supplement of paper PMC6089552.
Among all 3,200 compounds or so, about 300 (9.4%) showed activity. The list shows a part of the results, in another mix than the full data.

Test system: A673/TR/shEF
Assay: cell viability (LOESS-normalised, relative to median of negative controls) (log2 ratio); higher = more viable cells (less compound effect), active = hit call of the paper (over 3 MAD below the median)
Conditions: treatment time: 72 h
How it was run: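 For three days, A673/TR/shEF Ewing sarcoma cells in 384-well plates (1,500 per well) were treated with library compounds at two or more concentrations or with DMSO controls, after doxycycline had been added or withheld 24 h beforehand to induce EWS-FLI1 shRNA knockdown. Viability was read by CellTiter-Glo luminescence on an Envision reader. The data were LOESS-corrected per plate, divided by the median of negative controls and log2-transformed.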

[1] = 0.25 µM, library screen: screen1, EWS-FLI1 expression: high (no doxycycline)
[2] = 0.25 µM, library screen: screen1, EWS-FLI1 expression: low (doxycycline-induced shRNA knockdown)
[3] = 2.5 µM, library screen: screen1, EWS-FLI1 expression: high (no doxycycline)
[4] = 2.5 µM, library screen: screen1, EWS-FLI1 expression: low (doxycycline-induced shRNA knockdown)
[5] = 0.25 µM, library screen: screen2, EWS-FLI1 expression: high (no doxycycline)
[6] = 0.25 µM, library screen: screen2, EWS-FLI1 expression: low (doxycycline-induced shRNA knockdown)
[7] = 2.5 µM, library screen: screen2, EWS-FLI1 expression: high (no doxycycline)
[8] = 2.5 µM, library screen: screen2, EWS-FLI1 expression: low (doxycycline-induced shRNA knockdown)
[9] = 0.103 µM, library screen: screen3, EWS-FLI1 expression: high (no doxycycline)
[10] = 0.103 µM, library screen: screen3, EWS-FLI1 expression: low (doxycycline-induced shRNA knockdown)
[11] = 0.308 µM, library screen: screen3, EWS-FLI1 expression: high (no doxycycline)
[12] = 0.308 µM, library screen: screen3, EWS-FLI1 expression: low (doxycycline-induced shRNA knockdown)
[13] = 0.926 µM, library screen: screen3, EWS-FLI1 expression: high (no doxycycline)
[14] = 0.926 µM, library screen: screen3, EWS-FLI1 expression: low (doxycycline-induced shRNA knockdown)
[15] = 2.8 µM, library screen: screen3, EWS-FLI1 expression: high (no doxycycline)
[16] = 2.8 µM, library screen: screen3, EWS-FLI1 expression: low (doxycycline-induced shRNA knockdown)
[17] = 8.3 µM, library screen: screen3, EWS-FLI1 expression: high (no doxycycline)
[18] = 8.3 µM, library screen: screen3, EWS-FLI1 expression: low (doxycycline-induced shRNA knockdown)
[19] = 25 µM, library screen: screen3, EWS-FLI1 expression: high (no doxycycline)
[20] = 25 µM, library screen: screen3, EWS-FLI1 expression: low (doxycycline-induced shRNA knockdown)

Measured: cell viability (log2)

COc1cc(N)c(Cl)cc1C(=O)NC1CCN(Cc2ccccc2)CC1
inactive: [1] 0.0541 | [2] -0.0718 | [3] 0.0979 | [4] -0.0595

OC[C@@H](O)[C@@H](O)C(O)[C@H](O)[C@@H](O)CO (stereo partly specified)
inactive: [1] 0.0348 | [2] 0.0046 | [3] 0.138 | [4] 0.018

CC(=O)O[C@H]1CC[C@]2(C)[C@H]3CC=C4[C@@H]5CC(C)(C)CC[C@]5(C(=O)O)CC[C@@]4(C)[C@]3(C)CC[C@H]2C1(C)C
inactive: [1] 0.0325 | [2] 0.0553 | [3] 0.0391 | [4] 0.0458

COc1ccc(CN2CCN(Cc3ccccc3F)CC2)c(OC)c1
inactive: [1] 0.164 | [2] 0.0508 | [3] 0.0471 | [4] 0.126

NC(N)=NCCN1CCCCCCC1
inactive: [1] 0.086 | [2] 0.0896 | [3] 0.182 | [4] 0.105

O=C(NCC1CCCCN1)c1cc(OCC(F)(F)F)ccc1OCC(F)(F)F (stereo unspecified)
inactive: [5] 0.161 | [6] 0.0457 | [7] 0.121 | [8] 0.0811

CC1CCc2cc(F)cc3c(=O)c(C(=O)O)cn1c23 (stereo unspecified)
inactive: [1] 0.0685 | [2] 0.0111 | [3] 0.214 | [4] 0.0852

COc1cc2c(cc1OC)-c1c(oc3cc(O)cc(O)c3c1=O)CO2
inactive: [1] 0.0542 | [2] 0.053 | [3] 0.119 | [4] 0.146

C=C[C@H]1CN2CCC1C[C@@H]2[C@@H](O)c1ccnc2ccc(OC)cc12 (stereo partly specified)
inactive: [1] 0.0704 | [2] 0.101 | [5] 0.217 | [6] 0.0627 | [3] 0.154 | [4] 0.184 | [7] 0.157 | [8] 0.108

CCCOc1ccc2nc(NC(=O)OC)[nH]c2c1
active: [3] -0.659
inactive: [1] 0.0532 | [2] 0.106 | [4] -0.0137

CCCCOc1ccc(OCCCN2CCOCC2)cc1
inactive: [1] 0.172 | [2] 0.0279 | [3] 0.124 | [4] 0.0578

COc1cc(CN2CCN(Cc3cccc(OC)c3OC)CC2)c([N+](=O)[O-])cc1OC
inactive: [1] 0.00876 | [2] 0.0541 | [3] 0.119 | [4] -0.0278

COc1c(O)cc2c(c1O)[C@@H]1O[C@H](CO)[C@@H](O)[C@H](O)[C@H]1OC2=O
inactive: [1] 0.0447 | [2] 0.023 | [3] 0.0424 | [4] 0.0844

CC(=O)Oc1cccc(C(=O)O)c1OC(C)=O
inactive: [1] -0.0535 | [2] 0.0969 | [3] 0.0401 | [4] 0.0587

CC1OC1P(=O)(O)O (stereo unspecified)
inactive: [1] 0.0804 | [2] 0.0996 | [5] 0.102 | [6] 0.038 | [3] 0.16 | [4] 0.0713 | [7] 0.045 | [8] 0.0792

Nc1cccc(-c2cc3c(Oc4cccc(O)c4)ncnc3[nH]2)c1
inactive: [9] 0.136 | [10] 0.0102 | [11] 0.0422 | [12] 0.0346 | [13] 0.0247 | [14] 0.00411 | [15] -0.00369 | [16] 0.0285 | [17] -0.0241 | [18] 0.0796
active: [19] -0.494 | [20] -0.321

COC(=O)[C@@H]1OC(=O)C2OC23[C@@]1(C)CCC1[C@]2(C)C(C[C@@H](O)[C@]13C)C(C)(C)[C@H](OC(C)=O)C[C@@H]2OC(C)=O (stereo partly specified)
inactive: [1] 0.0653 | [2] 0.123 | [3] 0.0967 | [4] 0.0969

COc1ccc(CCCOC(Cn2ccnc2)c2ccc(OC)cc2)cc1 (stereo unspecified)
inactive: [5] 0.147 | [6] -0.026 | [7] 0.177 | [8] 0.0168

COc1ccccc1OCCNCC(O)COc1cccc2[nH]c3ccccc3c12 (stereo unspecified)
inactive: [1] 0.0598 | [2] 0.0785 | [3] -0.00725 | [4] 0.114

COC(=O)Nc1ccc(S(=O)(=O)N2C(C)CCCC2C)cc1 (stereo unspecified)
inactive: [1] 0.0592 | [2] 0.103 | [3] 0.0767 | [4] 0.0829

CC(C)c1nc(CN(C)C(=O)N[C@H](C(=O)N[C@@H](Cc2ccccc2)C[C@H](O)[C@H](Cc2ccccc2)NC(=O)OCc2cncs2)C(C)C)cs1
inactive: [9] 0.0232 | [10] 0.0233 | [11] 0.153 | [12] 0.109 | [13] 0.0131 | [14] 0.0345 | [15] 0.138 | [16] 0.0521 | [17] 0.0847 | [18] 0.0462 | [19] 0.0809 | [20] 0.0847

CCCOC(=O)c1c(-c2ccccc2)nc(CC)c(C(=O)SCC)c1CCC
inactive: [5] 0.156 | [6] 0.159 | [7] 0.133 | [8] 0.152

O=c1oc2cc3occc3cc2c2oc3cc4c(cc3c12)OCO4
inactive: [1] 0.103 | [2] -0.01 | [3] 0.0469 | [4] 0.0004
